# Experimental data reported in the supplement of paper PMC10037445.
# ± gives the standard deviation of the averaged measurements. In all, about 2,900 compounds were measured (“NF-kB SEAP reporter activity, fold change vs agonist alone”: median about 0.99, highest 2% from about 2.6 on). This is one part of the list.
# How the values were obtained:
# RAW-Dual [1] = experiment: NF-kB SEAP reporter activity, fold change vs agonist alone; cytotoxicity flag (confluency mask): not cytotoxic; higher = enhanced NF-kB activity
# In short: (§1)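 Supernatant from RAW-Dual macrophages was read after 20 hours for IRF by QuantiLuc luminescence and for NF-κB by QuantiBlue absorbance at 620 nm. The cells (50,000 cells/well in DMEM, 384-well plates, 37 °C, 5% CO2) had received 50 nL of library stock by pin tool and, 1 h later, a PRR agonist. Reporter activity is expressed relative to agonist-alone wells as fold change, and wells were flagged cytotoxic if IncuCyte confluency was under 70% of agonist controls in both mask sets.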
# RAW-Dual [2] = experiment: NF-kB SEAP reporter activity, fold change vs agonist alone; higher = enhanced NF-kB activity; conditions: library stock concentration (final ~1000-fold dilution): 10 mM
# In short: as §1
# RAW-Dual [3] = experiment: NF-kB SEAP reporter activity, fold change vs agonist alone; cytotoxicity flag (confluency mask): cytotoxic (confluency <70% of control); higher = enhanced NF-kB activity
# In short: as §1
# [4] = agonist: ODN 1826 (TLR9) 0.5 ug/mL
# [5] = agonist: Pam2CSK4 (TLR2/6) 0.1 ug/mL
# [6] = agonist: Pam3CSK4 (TLR2/1) 0.1 ug/mL
# [7] = cytotoxicity flag (confluency mask): not cytotoxic, agonist: Imiquimod (TLR7) […]
# [8] = cytotoxicity flag (confluency mask): not cytotoxic, agonist: MPLA (TLR4) […]
# [9] = cytotoxicity flag (confluency mask): cytotoxic (confluency <70% of control), agonist: MPLA (TLR4) […]
# [10] = cytotoxicity flag (confluency mask): cytotoxic (confluency <70% of control), agonist: Imiquimod (TLR7) […]
smiles,measurement,setting,value
O=C1C(Cc2ccc(O)cc2)N2C(=O)CCN(C(=O)NCc3ccccc3)C2CN1Cc1cccc2ccccc12 (stereo not drawn) (library stock concentration (final ~1000-fold dilution): 10 mM),NF-kB SEAP reporter activity,RAW-Dual [1]; agonist: LPS (TLR4) 0.1 ug/mL,3.72
same,NF-kB SEAP reporter activity,RAW-Dual [1]; [4],1.08
same,NF-kB SEAP reporter activity,RAW-Dual [1]; [5],0.484
same,NF-kB SEAP reporter activity,RAW-Dual [1]; [6],0.63
O=C1C(Cc2ccc(O)cc2)N2C(=O)CCN(C(=O)NCc3ccccc3)C2CN1Cc1cccc2ccccc12 (stereo not drawn),NF-kB SEAP reporter activity,RAW-Dual [2]; [7],1.45
same,NF-kB SEAP reporter activity,RAW-Dual [2]; [8],2.26
CNCCCN1c2ccccc2CCc2ccccc21.Cl (library stock concentration (final ~1000-fold dilution): 10 mM),NF-kB SEAP reporter activity,RAW-Dual [3]; agonist: LPS (TLR4) 0.1 ug/mL,1.53
same,NF-kB SEAP reporter activity,RAW-Dual [3]; [4],0.748
same,NF-kB SEAP reporter activity,RAW-Dual [3]; [5],0.908
same,NF-kB SEAP reporter activity,RAW-Dual [3]; [6],0.636
CNCCCN1c2ccccc2CCc2ccccc21.Cl,NF-kB SEAP reporter activity,RAW-Dual [2]; [9],1.31
CC(C)(O)c1ccccc1CCC(SCC1(CC(=O)O)CC1)c1cccc(/C=C/c2ccc3ccc(Cl)cc3n2)c1 (stereo not drawn) (library stock concentration (final ~1000-fold dilution): 10 mM),NF-kB SEAP reporter activity,RAW-Dual [3]; agonist: LPS (TLR4) 0.1 ug/mL,1.21
same,NF-kB SEAP reporter activity,RAW-Dual [3]; [4],0.499
same,NF-kB SEAP reporter activity,RAW-Dual [3]; [5],0.814
same,NF-kB SEAP reporter activity,RAW-Dual [3]; [6],0.458
CC(C)(O)c1ccccc1CCC(SCC1(CC(=O)O)CC1)c1cccc(/C=C/c2ccc3ccc(Cl)cc3n2)c1 (stereo not drawn),NF-kB SEAP reporter activity,RAW-Dual [2]; [10],1.05
same,NF-kB SEAP reporter activity,RAW-Dual [2]; [9],0.809
O=C(O)CCn1c2c(c3ccccc31)CC(NS(=O)(=O)c1ccc(F)cc1)CC2 (stereo not drawn) (library stock concentration (final ~1000-fold dilution): 10 mM),NF-kB SEAP reporter activity,RAW-Dual [1]; agonist: LPS (TLR4) 0.1 ug/mL,1.07
same,NF-kB SEAP reporter activity,RAW-Dual [1]; [4],0.99
same,NF-kB SEAP reporter activity,RAW-Dual [1]; [5],1.13
same,NF-kB SEAP reporter activity,RAW-Dual [1]; [6],1.07
O=C(O)CCn1c2c(c3ccccc31)CC(NS(=O)(=O)c1ccc(F)cc1)CC2 (stereo not drawn),NF-kB SEAP reporter activity,RAW-Dual [2]; [8],1.07
O=C(Nc1ccc2[nH]nc(-c3ccc4[nH]ccc4c3)c2c1)c1c(Cl)cccc1Cl,NF-kB SEAP reporter activity,RAW-Dual [2]; [10],0.55
same,NF-kB SEAP reporter activity,RAW-Dual [2]; [9],0.704
O=C(Nc1ccc2[nH]nc(-c3ccc4[nH]ccc4c3)c2c1)c1c(Cl)cccc1Cl (library stock concentration (final ~1000-fold dilution): 10 mM),NF-kB SEAP reporter activity,RAW-Dual [3]; agonist: LPS (TLR4) 0.1 ug/mL,0.946
same,NF-kB SEAP reporter activity,RAW-Dual [3]; [4],0.844
same,NF-kB SEAP reporter activity,RAW-Dual [3]; [5],0.0858
same,NF-kB SEAP reporter activity,RAW-Dual [3]; [6],0.202
COc1ccc2c(c1)C1(CC1c1ccc3c(/C=C/c4ccc(CN5CC(C)OC(C)C5)cc4)n[nH]c3c1)C(=O)N2 (stereo not drawn),NF-kB SEAP reporter activity,RAW-Dual [2]; [7],0.656
same,NF-kB SEAP reporter activity,RAW-Dual [2]; [8],0.699
COc1ccc2c(c1)C1(CC1c1ccc3c(/C=C/c4ccc(CN5CC(C)OC(C)C5)cc4)n[nH]c3c1)C(=O)N2 (stereo not drawn) (library stock concentration (final ~1000-fold dilution): 10 mM),NF-kB SEAP reporter activity,RAW-Dual [1]; agonist: LPS (TLR4) 0.1 ug/mL,0.612
same,NF-kB SEAP reporter activity,RAW-Dual [1]; [4],0.225
same,NF-kB SEAP reporter activity,RAW-Dual [1]; [5],0.481
same,NF-kB SEAP reporter activity,RAW-Dual [1]; [6],0.345
CC(C)CN(CC(O)C(Cc1ccccc1)NC(=O)OC1COC2OCCC12)S(=O)(=O)c1ccc(N)cc1 (stereo not drawn) (library stock concentration (final ~1000-fold dilution): 10 mM),NF-kB SEAP reporter activity,RAW-Dual [1]; agonist: LPS (TLR4) 0.1 ug/mL,1.73
same,NF-kB SEAP reporter activity,RAW-Dual [1]; [4],1.7
same,NF-kB SEAP reporter activity,RAW-Dual [1]; [5],1.48
same,NF-kB SEAP reporter activity,RAW-Dual [1]; [6],1.56
CC(C)CN(CC(O)C(Cc1ccccc1)NC(=O)OC1COC2OCCC12)S(=O)(=O)c1ccc(N)cc1 (stereo not drawn),NF-kB SEAP reporter activity,RAW-Dual [2]; [8],1.62
CS(=O)(=O)O.Fc1ccc(C2CCNCC2COc2ccc3c(c2)OCO3)cc1 (stereo not drawn),NF-kB SEAP reporter activity,RAW-Dual [2]; [9],1.43
CS(=O)(=O)O.Fc1ccc(C2CCNCC2COc2ccc3c(c2)OCO3)cc1 (stereo not drawn) (library stock concentration (final ~1000-fold dilution): 10 mM),NF-kB SEAP reporter activity,RAW-Dual [3]; agonist: LPS (TLR4) 0.1 ug/mL,1.08
same,NF-kB SEAP reporter activity,RAW-Dual [3]; [4],0.542
same,NF-kB SEAP reporter activity,RAW-Dual [3]; [5],0.486
same,NF-kB SEAP reporter activity,RAW-Dual [3]; [6],0.425
COc1ccc(-c2cc(C(F)F)nn2-c2ccc(S(N)(=O)=O)cc2)cc1F (library stock concentration (final ~1000-fold dilution): 10 mM),NF-kB SEAP reporter activity,RAW-Dual [1]; agonist: LPS (TLR4) 0.1 ug/mL,1.26
same,NF-kB SEAP reporter activity,RAW-Dual [1]; [4],1.14
same,NF-kB SEAP reporter activity,RAW-Dual [1]; [5],0.959
same,NF-kB SEAP reporter activity,RAW-Dual [1]; [6],1.19
COc1ccc(-c2cc(C(F)F)nn2-c2ccc(S(N)(=O)=O)cc2)cc1F,NF-kB SEAP reporter activity,RAW-Dual [2]; [7],1.26
same,NF-kB SEAP reporter activity,RAW-Dual [2]; [8],1.13
COc1ccc(CCNCC(O)COc2cccc(C)c2)cc1OC.Cl (stereo not drawn),NF-kB SEAP reporter activity,RAW-Dual [2]; [8],1.06
COc1ccc(CCNCC(O)COc2cccc(C)c2)cc1OC.Cl (stereo not drawn) (library stock concentration (final ~1000-fold dilution): 10 mM),NF-kB SEAP reporter activity,RAW-Dual [1]; agonist: LPS (TLR4) 0.1 ug/mL,1.02
same,NF-kB SEAP reporter activity,RAW-Dual [1]; [4],0.846
same,NF-kB SEAP reporter activity,RAW-Dual [1]; [5],0.999
same,NF-kB SEAP reporter activity,RAW-Dual [1]; [6],1.08
CCN(CC)C(=O)C1(c2ccccc2)CC1CN.Cl (stereo not drawn),NF-kB SEAP reporter activity,RAW-Dual [2]; [7],1.02
same,NF-kB SEAP reporter activity,RAW-Dual [2]; [8],1.1
CCN(CC)C(=O)C1(c2ccccc2)CC1CN.Cl (stereo not drawn) (library stock concentration (final ~1000-fold dilution): 10 mM),NF-kB SEAP reporter activity,RAW-Dual [1]; agonist: LPS (TLR4) 0.1 ug/mL,0.999
same,NF-kB SEAP reporter activity,RAW-Dual [1]; [4],0.858
same,NF-kB SEAP reporter activity,RAW-Dual [1]; [5],0.856
same,NF-kB SEAP reporter activity,RAW-Dual [1]; [6],1.18
FC(F)(F)Oc1ccc2[nH]c(-c3ccc(OCCOCCOc4ccc(-c5nc6cc(OC(F)(F)F)ccc6[nH]5)nc4)cn3)nc2c1 (library stock concentration (final ~1000-fold dilution): 10 mM),NF-kB SEAP reporter activity,RAW-Dual [1]; agonist: LPS (TLR4) 0.1 ug/mL,0.228
same,NF-kB SEAP reporter activity,RAW-Dual [1]; [4],0.633
same,NF-kB SEAP reporter activity,RAW-Dual [1]; [5],0.199
same,NF-kB SEAP reporter activity,RAW-Dual [1]; [6],0.192
FC(F)(F)Oc1ccc2[nH]c(-c3ccc(OCCOCCOc4ccc(-c5nc6cc(OC(F)(F)F)ccc6[nH]5)nc4)cn3)nc2c1,NF-kB SEAP reporter activity,RAW-Dual [2]; [7],0.717
same,NF-kB SEAP reporter activity,RAW-Dual [2]; [8],0.895
CN1CCN(CCCNc2ncc(Cl)c(-c3cc4c(C(=O)NC5CC5)cccc4s3)n2)CC1.Cl.Cl.Cl (library stock concentration (final ~1000-fold dilution): 10 mM),NF-kB SEAP reporter activity,RAW-Dual [1]; agonist: LPS (TLR4) 0.1 ug/mL,0.313 ± 0.14
same,NF-kB SEAP reporter activity,RAW-Dual [1]; [4],0.174 ± 0.0094
same,NF-kB SEAP reporter activity,RAW-Dual [1]; [5],0.0865 ± 0.0023
same,NF-kB SEAP reporter activity,RAW-Dual [1]; [6],0.134 ± 0.0077
CN1CCN(CCCNc2ncc(Cl)c(-c3cc4c(C(=O)NC5CC5)cccc4s3)n2)CC1.Cl.Cl.Cl,NF-kB SEAP reporter activity,RAW-Dual [2]; [7],0.215 ± 0.045
same,NF-kB SEAP reporter activity,RAW-Dual [2]; [8],0.2944 ± 0.00089
